Several values for one entry are separate records, joined by “and”; a condition that tells them apart may be missing. Identical values can stand only once. The whole screen tested about 150,000 compounds, of which about 190 (0.13%) were called active. The inconclusive results got no clear call from the source; some entries with a clear call stand among them for comparison. The call rests on the fitted dose curve; in most records, active means well fitted inhibition curve with a large enough effect; inconclusive means small, poorly fitted or top-dose-only effect; inactive means flat fitted curve, though single readings scatter. Potencies beside an inconclusive call are fits to weak or partial responses and may not hold up.
target: Polyunsaturated fatty acid lipoxygenase ALOX12 (Homo sapiens) (UniProt P18054); experiment: qHTS Assay for Inhibitors of 12-hLO (12-human lipoxygenase); conditions: purified 12-hLO, xylenol orange hydroperoxide absorbance; series mostly up to 57.1 µM; further: nearly all actives have a fitted effect of over 55% in size
UniProt P18054, sequence (P18054 whole entry, looked up): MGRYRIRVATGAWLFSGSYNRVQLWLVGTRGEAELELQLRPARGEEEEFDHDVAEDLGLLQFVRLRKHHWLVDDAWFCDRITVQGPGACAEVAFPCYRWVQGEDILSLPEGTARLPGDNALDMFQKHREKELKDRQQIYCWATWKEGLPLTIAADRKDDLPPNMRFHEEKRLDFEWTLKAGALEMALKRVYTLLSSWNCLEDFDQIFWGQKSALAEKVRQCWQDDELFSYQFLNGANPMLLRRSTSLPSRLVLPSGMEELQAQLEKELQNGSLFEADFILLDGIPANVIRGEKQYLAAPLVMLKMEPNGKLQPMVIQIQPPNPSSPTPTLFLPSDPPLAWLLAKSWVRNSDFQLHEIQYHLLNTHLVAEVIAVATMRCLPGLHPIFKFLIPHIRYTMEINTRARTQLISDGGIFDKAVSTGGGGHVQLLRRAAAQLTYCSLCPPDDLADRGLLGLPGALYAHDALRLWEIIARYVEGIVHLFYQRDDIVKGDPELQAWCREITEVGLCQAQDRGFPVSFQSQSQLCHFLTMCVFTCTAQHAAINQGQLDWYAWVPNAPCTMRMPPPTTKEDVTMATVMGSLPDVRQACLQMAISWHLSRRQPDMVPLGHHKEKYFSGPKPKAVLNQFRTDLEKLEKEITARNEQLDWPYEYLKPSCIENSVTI
Source text: Assay Provider: Holman, T.R., University of California, Santa Cruz Screening Center PI: Austin, C.P. Screening Center: NIH Chemical Genomics Center [NCGC] Human lipoxygenase 12hLO is a member of the closely related lipoxygenase family of enzymes which catalyze the site-specific oxidation of arachidonic acid to various hormone precursor molecules and as such is a candidate for drug development in a variety of disease areas, such as cancer and inflammation. Inhibition of 12hLO activity was screened by utilizing arachidonic acid as a substrate. The extent of hydroperoxide product formation was measured by a secondary chromogenic reaction in which xylenol orange (XO, Sigma-Aldrich, cat. number 39,818-7) reacts with the ferric ions produced from the reaction between the hydroperoxide and ferrous ions. The Fe(III)-XO complex is characterized with red-shifted absorbance at 560 nm. A purified preparation of human 12hLO was supplied by Professor Ted Holman, University of California, Santa Cruz.
Assay Protocol: Buffer: 25 mM Hepes pH 7.0, 0.01% Triton X-100. Reagents/Controls: Buffer in columns 3 and 4 as negative control (no enzyme). Substrate solution: 40 uM arachidonic acid (Sigma-Aldrich, St. Louis, MO) final concentration dispensed throughout the plate. Enzyme: 150 nM 12hLO final concentration in columns 1, 2, 5-48. Column 1 is neutral (100% activity). Column 2 contained pin-transferred titration of NDGA (nordihidroguaiaretic acid, Sigma-Aldrich, N 5023, top concentration 20 mM in DMSO, then 1:3 dilution in duplicate). (Dilution factor: 23 nL into 4 uL.) Chromogenic detection reagent (divalent iron/xylenol orange, Fe-XO): 200 uM xylenol orange plus 300 uM ferrous ammonium sulfate prepared freshly in 50 mM sulfuric acid. Assay Steps: Three uL of enzyme were dispensed to 1536-well Greiner black clear bottom plates. Compounds and controls (23 nL) were transferred via Kalypsys PinTool. The plates were incubated for 15 min at room temperature, and then 1 uL of substrate solution was added to start the reaction. After room temperature incubation for 30 minutes, 4 uL of Fe-XO solution was added to each well and the plates were incubated for 30 min. The absorbance at 405 and 573 nm were measured using ViewLux (Perkin-Elmer) High-throughput CCD imager and absorbance protocol settings. The 573-to-405 absorbance ratio was used to compute reaction progress.
On the % scale 0 is the no-effect control and ±100 the full control effect; potency means the concentration at half of the fitted maximal effect; tags describe the fitted curve by direction and shape.

Structure (SMILES)	Potency	activity change, negative = inhibition
CCC(C)N1C(=O)/C(=C/c2ccc3c(c2)CCN3CCCCl)C(=O)NC1=S (stereo not given)	inconclusive: 39.8 µM [inhibitor, single point]	
CC(C(=O)c1ccccc1)N1C(=O)c2ccccc2C1=O (stereo not given)	inactive	
Fc1ccccc1CCNCc1cccc(Cl)c1Cl	inactive	
CN1CCN(c2ccc([N+](=O)[O-])c(NCC3CCCO3)c2)CC1 (stereo not given)	inconclusive: 25.1 µM [inhibitor, single point]	
COc1ccc2c(c[n+](C)c3c4cc5c(cc4ccc23)OCO5)c1OC	inconclusive: 12.6 µM [inhibitor, partial curve]	
O=C(c1cc2ccccn2n1)N1CCC2(CC1)OCCO2	inactive	
CC(C)CC(C)Nc1ccc(Nc2ccccc2)cc1 (stereo not given)	inconclusive: 15.8 µM [inhibitor, partial curve]	
CC1=C(O)C(=O)C=C2C1=CC=C1[C@]2(C)CC[C@@]2(C)C3C[C@](C)(C(=O)O)CC[C@@]3(C)CC[C@@]12C (stereo not given in full)	inconclusive: 6.31 µM [inhibitor, partial curve]	
CC12CN3CC(C)(CN(C1)C3c1cccs1)C2O (stereo not given)	inactive	
C[C@]12N[C@H](Cc3ccccc31)c1ccccc12	inconclusive: 8.91 µM [inhibitor, single point]	
CC(C)N1C(=O)/C(=C/C=C/c2ccco2)C(=O)N(Cc2ccco2)C1=O	inconclusive: 31.6 µM [inhibitor, single point]	
CCNC(C)(C)[C@@H](SS)c1ccc(Br)cc1		inactive: -3.09% [at 11.4 µM]
COc1ccc(Cc2nccc3cc(OC)c(OC)cc23)cc1OC	inconclusive: 7.08 µM [inhibitor, single point]	
CCCN1CCc2cccc3c2[C@@H]1Cc1ccc(O)c(O)c1-3	inconclusive: 3.55 µM [inhibitor, full curve, poor fit]	
Oc1ccc(/C=N/NP(=S)(c2ccccc2)c2ccccc2)cc1O	inconclusive: 20 µM [inhibitor, partial curve]	
COc1ccccc1CCNC1CCC(C(C)(C)C)CC1 (stereo not given)	inconclusive: 39.8 µM [inhibitor, single point]	
CC(C)(C)[C@]1(O)C[C@@H]2OC(=O)CC23C(=O)O[C@@H]2OC(=O)[C@H](O)C231 (stereo not given in full)		inactive: -2.17% [at 0.00818 µM]
COC1=C[C@H]2[C@H]3Cc4ccc(OC)c(O)c4[C@@]2(CCN3C)CC1=O	inactive	
C=CCN(CC=C)Cc1c[nH]c2ccccc12	inactive	
O=C(NC1(C(F)(F)F)Oc2ccc(Cl)cc2O1)N1CCC2(CC1)OCCO2 (stereo not given)	inconclusive: 0.126 µM [inhibitor, full curve, poor fit]	
COc1ccccc1-n1c(O)c(C=NCc2ccc3c(c2)OCO3)c(=O)[nH]c1=O	inactive	
O=[N+]([O-])c1cc(Cl)c(Cl)c(Cl)c1	inactive	
COc1ccc(-c2cc(C(F)(F)F)n3nc(C(=O)N4CCC5(CC4)OCCO5)cc3n2)cc1OC	inactive	

Structure (SMILES)	Potency	activity change, negative = inhibition
C[C@]12C/C(=C/O)C(=O)C[C@@H]1CC[C@@H]1[C@@H]2CC[C@@]2(C)[C@H]1CC[C@]2(C)O	inactive	
O=C(O)c1cc[c]([Hg][Cl])cc1	inconclusive: 3.98 µM [inhibitor, full curve]	
COc1ccc(N/N=C/c2c(O)n(-c3ccc(C)c(C)c3)c(=O)[nH]c2=O)cc1	inactive	
CCC(C)OC(=O)c1c(N)n(Cc2cccs2)c2nc3ccccc3nc12 (stereo not given)	inconclusive: 28.2 µM [inhibitor, single point]	
C/C(=N\NC(N)=S)C12CC3CC(CC(C3)C1)C2	inconclusive: 28.2 µM [inhibitor, single point]	
N[C@@H](Cc1c[nH]c2ccccc12)c1nnc(SCc2ccc(Cl)cc2)o1	inconclusive: 28.2 µM [inhibitor, single point]	
CCOP(=S)(OCC)Oc1nc(Cl)c(Cl)cc1Cl	inconclusive: 39.8 µM [inhibitor, single point]	
N#C/C(=C\c1ccc(O)c(O)c1)C(=O)NCCCNC(=O)/C(C#N)=C/c1ccc(O)c(O)c1	inconclusive: 20 µM [inhibitor, partial curve]	
Cc1ccc(-n2sc3ccccc3c2=O)cc1	active: 7.94 µM	
O=C(O)C1Sc2[nH]c(=O)sc2C2c3cc(Cl)ccc3OC(=O)C12 (stereo not given)	inconclusive: 25.1 µM [inhibitor, partial curve]	
CN1C(=O)/C(=C\N2CCc3ccccc32)C(=O)NC1=S	inactive	
N#C/C(=C\c1ccc(O)c(O)c1)C(N)=S	active: 12.6 µM	
C=CCBr	inactive	
O=C1C2(Cl)C3(Cl)C4(Cl)C(Cl)(Cl)C5(Cl)C3(Cl)C1(Cl)C5(Cl)C24Cl (stereo not given)	inconclusive: 22.4 µM [inhibitor, partial curve]	
O=C1NC(=O)N(c2cccc(Cl)c2)C(=O)/C1=C\c1ccc(Sc2nc3ccccc3[nH]2)o1	inconclusive: 39.8 µM [inhibitor, single point]	
O=C1C(Cl)=C(Cl)C(=O)C(Cl)=C1Cl	inconclusive: 1.78 µM [inhibitor, full curve]	
CCCCC/C=C\C/C=C\C/C=C\C/C=C\CCCC(=O)NCCc1ccc(O)c(O)c1	inconclusive: 0.447 µM [inhibitor, full curve]	
O=C(OCC1O[C@@H](OC(=O)c2cc(O)c(O)c(O)c2)[C@@H](OC(=O)c2cc(O)c(O)c(O)c2)[C@@H](OC(=O)c2cc(O)c(O)c(O)c2)[C@@H]1OC(=O)c1cc(O)c(O)c(O)c1)c1cc(O)c(O)c(O)c1 (stereo not given in full)	inconclusive: 1.58 µM [inhibitor, partial curve]	
O=c1cc(-c2ccc(O)c(O)c2)oc2cc(O)cc(O)c12	inconclusive: 2.51 µM [inhibitor, partial curve] and inconclusive: 15.8 µM [inhibitor, partial curve]	
Nc1ccccc1C(=O)OCCc1ccccc1	inactive	
S=C1CN=C(c2ccccc2Cl)c2cc(Cl)ccc2N1	inconclusive: 17.8 µM [inhibitor, partial curve]	
O=c1[nH]c(=O)n(Cc2ccco2)c(O)c1C=NCc1ccco1	inactive	
